Reference: PubChem BioAssay AID1508624 (National Center for Advancing Translational Sciences (NCATS), 2021)
About 120 (0.25%) of roughly 48,000 compounds were called active. Roughly 4% stayed inconclusive and do not appear here. Calls come from the whole dose curve; as a rule, active = well fitted activation curve with a large enough effect; inconclusive = small, poorly fitted or top-dose-only effect, or another doubt; inactive = no such curve, though single readings can be large or run the other way. The list shows a part of the results.

assay: Primary qHTS for Identification of Small Molecule Activators of Huntingtin-Antisense Promoter Activity; settings: HEK293 HTT-AS promoter firefly luciferase reporter, 24 h; series mostly up to 57.5 µM; activity change, positive = activation: at the top concentration; note: nearly all actives have a fitted effect of over 55% in size
In short: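 Firefly luciferase signal from promoter-reporter HEK293 cells was scaled between vehicle (0%) and zero RLU (-100%). Compounds were tested at final concentrations of up to 57.5 uM over 24 h at 37 degrees C. PTC124 at 50 uM final served as control inhibitor.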
Potency is the fitted concentration of half-maximal effect.

Activity change, positive = activation, inactive:
COc1ccc(-n2c(SCC(=O)NCc3ccccc3)nc3n[nH]c(C)c3c2=N)cc1 -30.7%
CCCn1c(=O)c2sccc2n2c(CCCC(=O)Nc3ccccc3F)nnc12 2.87%
CN(C(=O)c1oc(=O)c2ccccc2c1-c1ccccc1)c1cccc(Cl)c1 -34.1%
COc1cccc(N2CCN(C(=O)Cn3ncc4c(=O)oc5ccccc5c43)CC2)c1 3.43%
O=C1CC(c2cccc(F)c2)c2c(n3ncnc3[nH]c2=O)N1 (configuration not stated) -6.42%
CCOC(=O)Cn1c(=O)n(C2CCCCC2)c2nc(-c3cccc(C)c3)nc(C(N)=O)c21 -16.1%
Cc1ccc(N2CCN(C(=O)c3c(C)oc4nc(C)nc(N5CCCC5)c34)CC2)c(C)c1 -30%
COc1cccc(N(C)C(=S)Oc2ccc3c(c2)CCCC3)n1
COc1cc(NS(=O)(=O)c2ccc(NC(=O)c3ccc(C(C)=O)cc3)cc2)nc(OC)n1 -16.8%
CCOC(=O)c1cccc(NC(=O)N2CC(CC)Oc3ccccc32)c1 (configuration not stated) -21%
COc1ccc(NC(=O)c2sc3nc4c(cc3c2N)CCCCCC4)cc1Cl 7.06% [at 11.5 µM, percent change from vehicle, -100% = no light]
Cc1cccc(-n2ncc(C(=O)NCc3ccco3)c2C2CCN(C(=O)OC(C)(C)C)CC2)c1 -26.3%
Cc1nc2cccnc2n1C1CCN(S(=O)(=O)c2ccc(C(C)C)cc2)CC1 -39.3%
O=C(CSc1ncc2c(n1)-c1ccccc1N(Cc1ccc(F)cc1)S2(=O)=O)NCc1ccccc1 14%
CCc1nn(CC(=O)NCCN(CC)CC)c(=O)c2cc3occc3n12 -6.76%
Cc1cccc(CNC(=O)CCCN2C(=O)COc3ccc(C)cc32)c1 -13.8%
CCn1c(=O)c2cc(C(=O)N(C)c3cc(Cl)c(OC)cc3OC)sc2c2ccccc21 -3.31%
O=C(c1ccccc1Cl)N1CCN(CCc2ccccn2)CC1 -12.7%
COc1ccc2cc3cc(C(=O)Nc4ccccc4C)oc3nc2c1 -4.5%
COc1ccc(NC(=O)CSc2nc(C)cc(C)c2C(=O)Nc2cccc(C)c2)cc1 -26.2%
COc1cccc(C(=O)Nc2ccccc2-c2nnc(-c3ccc(C(C)(C)C)cc3)o2)c1 -10%
C[C@@H](NC(=O)CN(c1ccccc1)S(=O)(=O)N(C)C)c1ccccc1 -0.273%
CCCOC(=O)c1ccc(Nc2nc3ccccc3nc2-n2nc(C)cc2C)cc1 -1.6%
CCOc1ccc(-c2cc(CCCC(=O)NCCc3ccc(OCC)c(OCC)c3)no2)cc1 -80.4%
Cc1ccc(NC(=O)Nc2ccc3nc(N4CCN(C)CC4)cc(C)c3c2)cc1C -15.8%
CCNC(=O)c1noc(-c2cc(C(C)C)c(O)cc2O)c1-c1ccc(CN2CCOCC2)cc1 -64.1%
Cc1ccccc1NC(=O)c1ccc(F)c(S(=O)(=O)NC2CCCC2)c1 -23.1%
CCN1CCN(C(=O)c2ccc3c(c2)N(Cc2ccccc2F)C(=O)c2ccccc2S3(=O)=O)CC1 -10.2%
Cc1ccccc1NC(=O)Cn1c(=O)n(-c2ccc(CC(=O)NCC3CCCO3)cc2)c(=O)c2ccccc21 (configuration not stated) -4.33%
O=C(Cn1c(=O)n(-c2ccc(Cl)cc2)c(=O)c2sc3ccccc3c21)NC1CCCCC1 -4.47%
COc1ccc(-c2cc(C(F)(F)F)nc(NCc3ccccc3)n2)cc1 -24.1%
COc1cc(OC)c(NC(=O)CCn2cccn2)cc1Cl -4.02%
CN(Cc1ccccc1)C(C(=O)NC1CCCCC1)c1ccc(Cl)cc1 (configuration not stated) 8.73%
Fc1ccc(C(Nc2ccc(Cl)c(C(F)(F)F)c2)c2nnc(-c3ccccc3)o2)cc1 (configuration not stated) -39%
CC(C=CC=C(C)C=CC1=C(C)CCCC1(C)C)=CC=CC=C(C)C=CC=C(C)C=CC1=C(C)CCCC1(C)C -7.92%
Cc1cn2c(=O)cc(COC(=O)c3cccc(NC(=O)COc4ccc(Cl)cc4)c3)nc2s1 -6.9%
Cc1ccc(CCNC(=O)c2cc3sccc3n2Cc2ccc(F)cc2)cc1 -16.2%
COC(=O)c1c(NC(=O)COc2ccccc2Cl)sc2c1CCC(C(C)(C)C)C2 (configuration not stated) -4.52%
COC(=O)c1ccc(Cl)cc1NC(=O)N1CCC(CN2CCCC2)CC1 -10.2%
CC(C)(O)CCc1ccc(OCc2cc(-c3cccc(OC(F)F)c3)c3ncccc3c2)cc1 -8.62%
Cc1ccc(C(=O)c2cn(Cc3ccccc3F)c3cc4c(cc3c2=O)OCO4)cc1 1.74%
N#C/C(=C\c1ccc(Br)cc1)c1nc(-c2cc3cc(Br)ccc3oc2=O)cs1 -4.9%
COc1cc(/C=C(\C#N)c2nc3ccc(C)cc3[nH]2)ccc1OC(C)C 15.8%
CC1(C)O[C@@H]2C[C@H]3[C@@H]4CCC5=CC(=O)C=C[C@]5(C)[C@@H]4[C@@H](O)C[C@]3(C)[C@]2(C(=O)CO)O1 -10.4%
CCc1ccc(S(=O)(=O)c2c[nH]c3cc(OC)c(OC)cc3c2=O)cc1 3.23%
COc1ccc2cc3cc(C(=O)NCCc4ccccc4)sc3nc2c1Cl 6.27%
CCc1ccccc1N(C)S(=O)(=O)c1ccc2[nH]cc(C(=O)NCCOC)c(=O)c2c1 -22.5%
CC(C)CCNC(=O)CN1C(=O)c2cccnc2Oc2ccccc21 -10%
N#Cc1ccccc1S(=O)(=O)N1CCCC(c2nc3c(nnn3Cc3cccc(Cl)c3)c(=O)[nH]2)C1 (configuration not stated) -35.3%
Cc1csc2nc(CCNS(=O)(=O)c3ccccc3)cn12 -7.31%
O=C(NCc1ccco1)c1c[nH]c2ccc(S(=O)(=O)Nc3ccc(F)cc3F)cc2c1=O -36.4%
CCCCNc1nc2c(S(=O)(=O)c3ccc(Cl)cc3)nnn2c2ccsc12 -36.8%
Cc1nn(-c2ccccc2)c2c1N(CCCC(=O)NCc1ccc(Cl)cc1)C(=O)CS2 0.849%
COc1cccc(CNC(=O)c2ccc3c(c2)N(Cc2ccc(C(F)(F)F)cc2)C(=O)c2ccccc2S3)c1OC -29.4%
CN1CCN(C(=O)c2cnn(-c3cccc(Cl)c3)c2C2CCN(C(=O)OC(C)(C)C)CC2)CC1 -6.29%
Cc1ccc(CN(Cc2ccco2)C(=O)COc2ccc(Cl)cc2Cl)cc1 -37.2%
COc1ccc(-c2nnc(SCC(=O)NCc3ccccc3)nc2-c2ccc(OC)c(OC)c2)cc1OC -40.7%
CCOc1ccccc1CNC(=O)CN(c1ccc(C)cc1)S(=O)(=O)N(C)C -12.4%
CC(C)(C)c1ccc(S(=O)(=O)c2cnc(SCC(=O)Nc3ccc(F)c(Cl)c3)[nH]c2=O)cc1 -9.78%
CCOc1ccc(NC(=O)Cc2ccc(NC(=O)N3CCCCc4ccccc43)cc2)cc1 -16.4%
COC(=O)c1ccc([C@H]2Nc3ccc(S(=O)(=O)Nc4ccc(C)cc4)cc3[C@H]3C=CC[C@H]32)cc1 -11.2%
CCOC(=O)c1cc(-c2ccc(F)cc2)n(CC(=O)NCc2ccc(OC)cc2)c1C -27.4%
Cc1c(NC(C)C)c(=O)n(-c2ccccc2)n1C 3.52%
CCN(CCCNC(=O)CSc1cc(=O)n(C)c2cc(Cl)ccc12)c1cccc(C)c1 0%
Cc1c2cnn(-c3ccccc3)c(=O)c2c(C)n1CC(=O)N1CCN(c2ccc(F)cc2)CC1 -34.2%
COc1cc(-c2noc(-c3ccc(N4CCOCC4)c([N+](=O)[O-])c3)n2)cc(OC)c1OC -2.93%
Cc1ccc(NC(=O)CSc2nc3ccccc3c3nc(CCn4cncc4C)nn23)c(C)c1 3.53%
Cc1ccc(OCC(=O)N(Cc2ccco2)Cc2ccco2)cc1 -12.3%
Oc1c(C(c2ccc(Br)cc2)N2CCOCC2)sc2nc(-c3ccco3)nn12 (configuration not stated) -10.6%
CCc1ccc(C(=O)c2c(N)c(-c3nc(-c4ccc5c(c4)OCO5)cs3)c3ccccn23)cc1 2.2%
COc1ccc2nc3sc(C(=O)N4CCN(c5ccccc5)CC4)cc3cc2c1 1.24%
COc1ccc(CCNC(=O)CCn2c(=O)c3ccccc3n(Cc3c(C)cc(C)cc3C)c2=O)cc1OC -12.7%
Cc1ccc(C(N)=O)cc1Nc1nccc(-c2cn(C(C)C)c3cnccc23)n1 -29.9%
Nc1nc(N)c(-c2ccccc2)s1 -5.62%
COc1ccc(OC)c(NC(=O)Cn2ccn(-c3ccc(F)cc3)c(=O)c2=O)c1 -9.19%
COc1ccc(-c2nc(SCC(=O)NCC3CCCO3)c(-c3ccc(Cl)cc3)[nH]2)cc1 (configuration not stated) -24%
Cc1c(Cl)ccc2sc(NC(=O)c3ccc(S(=O)(=O)N4CCCC4)cc3)nc12 -11%
CCCNC(=O)CCn1nc(-c2ccc(C)cc2)c2ccccc2c1=O -11.7%
O=C(NCc1ccc2c(c1)CCN2C(=O)c1ccncc1)c1ccccc1Br -25%
Cc1ccc2ncc(C(=O)Nc3cccc(C(F)(F)F)c3)c(=O)n2c1 -9.78%
COc1cc(C(=O)Nc2cccc(OCc3cc(=O)n4c(C)csc4n3)c2)cc(OC)c1OC 9.85%
COc1cccc(-n2cc(C(=O)Oc3ccc(F)cc3)c3ccccc3c2=O)c1 -25.8%
Cc1nn2c(=O)cc(COC(=O)c3ccccc3NC(=O)C(C)C)nc2s1 -4.72%
COc1ccc(S(=O)(=O)N2CCC(c3nnc(-c4ccccc4C)o3)CC2)c(OC)c1 -30.8%
Cc1noc2ncnc(N3CCCC(C(=O)NCCC(C)C)C3)c12 (configuration not stated) -29%
O=C(C=Cc1ccc(/C=C/C(=O)Nc2ccc(C3=NCCN3)cc2)cc1)Nc1ccc(C2=NCCN2)cc1 -21.7%
Cc1ccc(S(=O)(=O)c2c(Nc3ccccc3)sc(C(=O)c3ccc4c(c3)OCO4)c2N)cc1 -24.7%
Cc1ccc(Cl)cc1N1CCN(C(=O)C(C)n2ncn3cccc3c2=O)CC1 (configuration not stated) -16.7%
CCCCN(CCCC)C(=O)c1cc2c(=O)n3ccccc3nc2s1 -9.12%
CCNC(=O)c1c(NC(=O)c2cc(=O)c3ccc(C)c(C)c3o2)sc2c1CCCC2 0.911%
Cc1cccc(N2CCN(S(=O)(=O)c3ccc(F)c(C(=O)Nc4cccc(Cl)c4C)c3)CC2C)c1 (configuration not stated) -19.4%

Potency, active:
COc1cccc(NC(=O)C(=O)NCC(c2ccc3c(c2)OCO3)N2CCOCC2)c1 (configuration not stated) 4.47 µM
